# ± gives the standard deviation of the averaged measurements. Some of the results follow.
# Tested on: PfAP2-LT AP2 domain (GST-tagged)
# Assay: gcPBM binding intensity (ln(normalized median fluorescence intensity)); higher = stronger DNA binding
# In short: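 After 1 h on an Agilent 4 × 180k array of primer-extended double-stranded 36-bp intergenic genomic probes and negative controls, bound GST-tagged P. falciparum DNA-binding domains were detected with Alexa488 anti-GST antibody and scanned at 488 nm. The domains had been expressed in E. coli, and binding took place in 1× PBS with 1% milk, 0.2 mg/ml BSA, 0.5% salmon testes DNA and 0.03% Triton X-100. Binding intensity is the highest Masliner-normalised natural-log median intensity across replicate spots of either probe orientation.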
row,Sequence,gcPBM binding intensity (ln)
1,AAGTAAAAAAATAGCACACACACAAAAACACAGACA [CACACA_site4839],10.1
2,AAAGGGATGTTCATTCTTTTTTTTTTTTTTGTATAT [CACACA_negctrl_site511],8.59 ± 0.45
3,AAAAAAAAAAAACACACACACACACTAATACATACA [CACACA_site8135],10.1 ± 0.12
4,TTTCCCTACCAAAAATGTACTTATAAGCGTTTTTAT [XGTACX_site739],8.77 ± 0.41
5,TTTTTAAATTATTGCACACAAAAATGAAAGGAAAAA [CACACA_site1455],8.71 ± 0.41
6,CACTAAAATAAACACACACACACACCGATATATATA [CACACA_site9379],9.96 ± 0.014
7,TATATTTATATGATAACACACATAAATTATACATTT [CACACA_site1671],8.71 ± 0.4
8,CTTGTCATTTTGCACACACACATGTATAGGTTATTA [CACACA_site7431],9.67 ± 0.16
9,TTAATTTTATTTTTTTGTACACATAAATATTATAAA [XGTACX_site4680],8.41 ± 0.47
10,TTTTTTTAAATATACACACACATTTATACCTATATA [CACACA_site7572],9.2 ± 0.4
11,TATAACTATAAAAGTAGTACACATATATATTATATA [XGTACX_site1391],8.74 ± 0.38
12,TATATATATATAGACACACACACACCCATATATATA [CACACA_site4117],9.94 ± 0.23
13,AATGGTTTAAAATACTGTACATATATATAAAAGTAA [XGTACX_site6187],8.73 ± 0.46
14,TTCCTAATTGACAACACACACAACAAAAAAGGGATT [CACACA_site1279],9.34 ± 0.36
15,TACCTTTTTTGTTTTATGCACACCATATAACCAAGG [CACACA_site30],8.98 ± 0.42
16,TTTTTTTTTCCGTGTTGTACAAAAAAAAAGATTTTG [XGTACX_site3925],8.21 ± 0.39
17,TATAACTATTCACAGACATGCACATAATAACAATAA [TGCATGCA_site207],8.88 ± 0.4
18,AAGAAATATTTATACACACACACAAACATATAAATA [CACACA_site6981],9.9 ± 0.24
19,TAAAAAAAAAAAAAAGCATGCTATATTATATTACAC [TGCATGCA_site241],8.7 ± 0.39
20,AGTCTGAATAAAATTACACACATATACATATATATA [CACACA_site1780],8.96 ± 0.4
21,ATATATAAATTTTAGTGTACATTAATTTTTTTTTTT [XGTACX_site7782],8.59 ± 0.45
22,AAAAAAAAAAAAAAAACACACAATAAAGTAAAATTT [CACACA_site135],8.8 ± 0.43
23,TAAATATATTAAGCTTGTACATGAAAAAAAAAAAAA [XGTACX_site3264],8.59 ± 0.4

row,Sequence,gcPBM binding intensity (ln)
1,TATGTATATAAATTAACACACATATGTGGTTAATAG [CACACA_site3143],8.8 ± 0.37
2,ATAATATATACTAAAAGTACATATTATAATAAATTA [XGTACX_site6749],8.59 ± 0.42
3,GAAATAATTGTTAAAGGTACACAATGCATATACAAT [XGTACX_site238],9.02 ± 0.4
4,AGGAAAATAGAAAAAGCACACATATATTTTGGAATG [CACACA_site8080],8.98 ± 0.54
5,ACTTCATTTTTTTTATGTACACAGAAGATTTACAAA [XGTACX_site4021],8.5 ± 0.47
6,AAAATAATAATTAATACATGCATTAATTCTTTTTTT [TGCATGCA_site741],8.48 ± 0.51
7,ACATATGTATGAATATCAAAAAATCCCTATTTAATG [GTGCAC_negctrl_site27],8.78 ± 0.47
8,TATATACATATATATACACACATATATATATTTTAT [CACACA_site3788],8.96 ± 0.47
9,CATATATTATTTAATAGTACATATAAAAGAAAAAAA [XGTACX_site4643],8.6 ± 0.56
10,TATATAAATAAATGTGTACACACATTAAAATCAAAC [CACACA_site8733],9.16 ± 0.43
11,ATTTATTTATTTTTTTGTACGAATGTTGCACATATA [XGTACX_site4101],8.89 ± 0.47
12,AAATCAACTTATTTTTGTACATATATTTATTATATA [XGTACX_site2925],8.9 ± 0.4
13,ATAGAAACATATTGACGTACAGTATAATAATACAGT [XGTACX_site197],9.12 ± 0.38
14,ATATATTATAGAGGTGTGCACTACATACATTATAAT [GTGCAC_site9991],9.23 ± 0.48
15,TCTTTATGTAAGGTCTTCCACAAAAAAATTAAAAAA [TGCATGCA_negctrl_site229],8.13 ± 0.4
16,GAAAAATTAATAAATAAACACACATATATATATATA [CACACA_site8835],9.43 ± 0.37
17,ATTTTCACCTGAACGGTGCATATTTAATTTTAGGTT,8.99 ± 0.47
18,ATATATGTACAAATTGTGCGCAATAATTTTGTCTTT,9.13 ± 0.35
19,ATACATATATATGTGTGTACATATGTGTATACATTT [XGTACX_site6544],9.26 ± 0.35
20,ATATGTATTAAGTGTACACATATAATGGGTTTGTTA [CACACA_site5682],8.95 ± 0.38
21,TTTTATAAATCTAAACGTATCTAAATGAATAATTAA [GTGCAC_negctrl_site44],8.14 ± 0.43
22,GAATGAAAATAAAATTGTACACATATCTATATCTAT [XGTACX_site2642],8.76 ± 0.42
23,TATATTATATGTATTGCACACCTTCAACAACTACTT [CACACA_site8121],9.2 ± 0.49

row,Sequence,gcPBM binding intensity (ln)
1,AAAAAAAAAAAAAGTTGTACATTATTTTCCTAATTC [XGTACX_site7998],8.46 ± 0.38
2,TTTAATTAGGATAATTGTACTGAACTAAGTATATTT [XGTACX_site1871],8.46 ± 0.45
3,TTTTTTATTTTGTGCACACACATAAAAATATATATA [CACACA_site761],9.04 ± 0.42
4,TTTTTTTTTTTTTAAACATGCATAATAAATATAATA [TGCATGCA_site265],8.07 ± 0.41
5,TATTTATTTATGGACACACATACAAATCTTCCAGAC [CACACA_site942],8.93 ± 0.41
6,TAATCATAACTTGATACGCACACGTTATATAAATAA [CACACA_site1579],8.78 ± 0.33
7,TTGTTTTCTTATTATTACTACAATACTTAAGTCAGA [TGCATGCA_negctrl_site184],8.58 ± 0.42
8,TTTTGTTGGATACAAAAATTACAAATTATTTAAAAA [TGCATGCA_negctrl_site532],8.07 ± 0.4
9,TTTTTTATTTTAAAAACATGCATAAAATATAATAGT [TGCATGCA_site762],8.32 ± 0.35
10,TATATATTTAATTTCACACATATATATAATTATTAT [CACACA_site4936],8.76 ± 0.38
11,ATATTATATATAAAATGTACATTTAAAAATATTATA [XGTACX_site889],8.66 ± 0.42
12,ATACACACTTAAAAAAGTACTTAACTACATGAATTG [XGTACX_site1203],8.82 ± 0.41
13,TATCATAAAAAATATACACACAAAGGATATTTATAT [CACACA_site6841],8.99 ± 0.29
14,TATGAACACCAACACACACACAAAAAAAAAAAAAAA [CACACA_site2013],9.49 ± 0.48
15,GAATACATAATAACATGTACACACATTCTTCTATAA [XGTACX_site8725],9.01 ± 0.36
16,TATATATATAGAAATGCATGTTAATAAAAGTTATAA [TGCATGCA_site947],8.9 ± 0.36
17,AAAAATAATCATTAGGTGCAAAAAATATATATATAT [GTGCAC_site9631],9.27 ± 0.31
18,TACGTAAAATAATTGAGTACATAATTATATATATAT [XGTACX_site5361],8.74 ± 0.46
19,AGAAAAATTATTTTGCGTACATATTTACAATAAAAA [XGTACX_site2144],8.43 ± 0.57
20,AACAAATATATATGTAGTACATGTTGTAGATAATTT [XGTACX_site24],9.22 ± 0.45
21,TTTTTTTTTTTAAATTCACACAATATATAAATATTG [CACACA_site5201],8.44 ± 0.49
22,TAAAGCATATTATAAACACACACTGTATAAAGATAT [CACACA_site296],9.18 ± 0.35
23,TTTAAAATATATAGTACACACGTGAACACAAATACA [CACACA_site4392],8.96 ± 0.42

row,Sequence,gcPBM binding intensity (ln)
1,GTACATTATTTATATACACACAAAGAAAAATATACA [CACACA_site3452],9.21 ± 0.25
2,TATACATATGAAAATACACACATACATACAGATATA [CACACA_site5002],9.24 ± 0.31
3,AAAAAAAATATAATATGTACATATCTATATATCAAC [XGTACX_site4881],8.8 ± 0.49
4,TTGTTTTTAATATCGGTGCAATGGAAAGAAAAGAAG [GTGCAC_site9494],8.49 ± 0.49
5,ATTAAATCGATATATACACACATGTTTGGTATATTC [CACACA_site7285],9.26 ± 0.22
6,TTAAAATAAAGTAGTGGTACAAAAAAAAAAAAAAAA [XGTACX_site6322],8.49 ± 0.58
7,TAACCTATAATATTCACACACATATAAATATTATAG [CACACA_site6592],9.03 ± 0.31
8,AGTAATAGTTTGTGCACACTCAAGTATATCATATAT [CACACA_site4034],9.37 ± 0.38
9,TTTTACTTAAAACACACACACACAAAAAAAAAAAAA [CACACA_site947],9.46 ± 0.31
10,TTTTTCAGAAAAGAAACACACATATTTATATTTATA [CACACA_site7167],8.43 ± 0.46
11,TAAACAAATAAATAAACACACAATATCTGTATTTAT [CACACA_site5978],8.88 ± 0.46
12,TATATGTATATATATTAACACACAAAAAAAAAAAAA [CACACA_site8534],8.87 ± 0.42
13,AATTAAATTACTTATACACACATAAAATGGGTGTAT [CACACA_site4703],8.97 ± 0.37
14,AAAAAAAAAAAAAAGCGTACAAATAAAATATATTTA [XGTACX_site7195],8.52 ± 0.67
15,CGTATATATAAATACACACACATATATATCTGTAAA [CACACA_site4272],9.56 ± 0.34
16,TTAATTTATTTATGCACACATATATAATTACCCATA [CACACA_site682],8.96 ± 0.42
17,TTTTTATATGCGTATTGTACATTATACATATATATA [XGTACX_site6786],8.81 ± 0.38
18,CCTTTTTTGTTTTATGCACACCATATAACCAAGGCT [CACACA_site7893],9.07 ± 0.5
19,TAAATGTCCTTATTTGCACACACACCCATAAGAAAT [CACACA_site3185],9.56 ± 0.28
20,ATGTAATGAAACATTGCACACATATAATAATATAAT [CACACA_site8402],9.31 ± 0.35

# — the supplement of paper PMC11417369
